# Data taken from PubChem BioAssay AID1671188 (National Center for Advancing Translational Sciences (NCATS), 2021).
# Several values for one entry are separate records, joined by “and”; a condition that tells them apart may be missing. Identical values can stand only once. About 250 (0.25%) of roughly 100,000 compounds were called active. Inconclusive results, whose numbers are uncertain, are shown with a selection of clear calls. Calls come from the whole dose curve; as a rule, active = well fitted inhibition curve with a large enough effect; inconclusive = small, poorly fitted or top-dose-only effect; inactive = flat fitted curve, though single readings scatter. No potency is given beside an inconclusive call; the fits are too rough. A structure can be active in one record and inactive in another.
# Molecular target: Alanine aminotransferase 2 (Homo sapiens) (UniProt Q8TD30)
# Sequence of UniProt Q8TD30 (Q8TD30 whole entry, looked up): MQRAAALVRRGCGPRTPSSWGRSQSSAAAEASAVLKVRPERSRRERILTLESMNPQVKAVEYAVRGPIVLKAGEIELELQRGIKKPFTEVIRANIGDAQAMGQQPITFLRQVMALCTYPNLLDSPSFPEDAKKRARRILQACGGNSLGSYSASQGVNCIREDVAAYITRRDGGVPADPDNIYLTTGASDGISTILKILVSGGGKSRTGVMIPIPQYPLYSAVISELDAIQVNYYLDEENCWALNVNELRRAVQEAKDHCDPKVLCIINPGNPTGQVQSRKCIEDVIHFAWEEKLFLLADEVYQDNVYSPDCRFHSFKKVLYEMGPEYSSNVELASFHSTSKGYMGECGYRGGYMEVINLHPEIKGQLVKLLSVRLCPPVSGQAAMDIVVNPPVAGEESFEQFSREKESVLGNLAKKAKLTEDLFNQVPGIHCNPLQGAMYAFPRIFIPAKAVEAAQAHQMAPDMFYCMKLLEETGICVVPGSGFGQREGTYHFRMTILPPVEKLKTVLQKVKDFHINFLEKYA
# Assay: Primary qHTS assay for inhibitors of Glutamate pyruvate transaminase 2 (GPT2); note: nearly all actives have a fitted effect of over 60% in size
# Settings: Recombinant GPT2, coupled pyruvate oxidase/HRP Amplex Red fluorescence; series mostly up to 57.7 µM
# Method: Assay Provider: Zhenghe John Wang Ph.D.
# Case Western Reserve University, Cleveland OH
# Glutamate pyruvate transaminase 2 (GPT2) catalyzes the reversible transamination of glutamate and pyruvate to provide a-ketoglutarate and alanine. We have optimized an assay for GPT2 enzymatic activity that couples pyruvate formation to detection of fluorescence using an established pyruvate oxidase/horseradish peroxidase / Amplex Red system.
# Screening conditions were 250uM a-KG, 2mM L-alanine, and 10ng/uL GPT2 in […] of solution; 10uL of Amplex reaction mix (outlined below) were added so that final concentrations of Amplex reagents in 50uL were 0.2mM ThPP, 0.2U/mL PO and HRP, and 50uM Amplex.
# NOTE: The volume of GPT2 in the system depends on the activity of it. The activity is different every batch. You need to test the activity before the assay. For full plate assay with automation, plate 20uL of GPT2 buffer to pin into, then add 10uL of GPT2 dilution followed immediately by 10uL of substrate dilution. 2 Columns of the plate were devoted to GPT2 buffer ([…] PH7.5, 0.0001% Tween) + 50uM AOA (known GPT2 inhibitor) to serve as a positive control. Complete the assay as normal. Amplex-red buffer: […] PH7.5, 1 mM EDTA, 1 mM MgCl2.
# 1. Combine a-KG and L-alanine at desired concentrations and incubate for at least 10 minutes at 37C. Stocks of L-alanine and a-KG are diluted in distilled water. However, the stocks were diluted in GPT2 buffer for the assay.
# 2. Prepare GPT2 dilution at the desired concentration in GPT2 buffer.
# 3. Plate 40uL of GPT2 dilution with 40uL of substrate dilution and let incubate for 30 minutes at room temperature.
# 4. Add 20uL of Amplex reaction mix prepared as follows: 1.5uL 200U/mL Horseradish Peroxidase, 200mM Thiamine Pyrophosphate, 200U/mL Pyruvate Oxidase; 7.5uL 10mM Amplex Red; 288uL Amplex Buffer.
# 5. Incubate for 30 minutes at room temperature in the dark, then image using AM_Amplex_Fluorescence on plate reader nearest the window.
# Potency is the fitted concentration of half-maximal effect; tags give direction and shape of the fitted curve.
row,Structure (SMILES),Potency
1,CN(Cc1ccc2ncccc2c1)C(=O)c1ccc(C2CCNC2)cc1 (stereo not given),inactive
2,CN1Cc2sccc2C(c2ccc(O)c(O)c2)C1 (stereo not given),active: 3.98 µM
3,CCc1nccn1Cc1nnc(C2CC(N)C2)n1CCOC (stereo not given),"inconclusive [inhibitor, full curve, poor fit]"
4,CCc1nc2c(c(-c3ccc(O)cc3)n1)CN(Cc1cccc(C(F)(F)F)c1)CC2,inactive
5,CC(C)(CC(=O)O)CC(=O)N1CCN2C(=O)c3cc(-c4ccc(Cl)cc4)ccc3NC(=O)[C@H]2C1,inactive
6,O=C(CC1CCCC1)N1CCC(N2CC3CC(C2)[C@H]2CCCC(=O)N2C3)CC1 (stereo not given in full),"inconclusive [inhibitor, partial curve, poor fit]"
7,COc1cc(NC(=O)N2CCCC(Cn3cnc4cccnc43)C2)cc(OC)c1OC (stereo not given),"inconclusive [inhibitor, partial curve]"
8,CN1c2cc(C(=O)N3CCc4ccccc4C3)ccc2C(=O)N2CCCCC21 (stereo not given),"inconclusive [inhibitor, partial curve, poor fit]"
9,COc1ccc(-c2cc(N3CCCN(C(=O)Cc4cccc(OC)c4)CC3)n[nH]2)cc1,"inconclusive [inhibitor, partial curve]"
10,COCCC1(NS(=O)(=O)c2cccnc2)CCN(S(C)(=O)=O)CC1,"inconclusive [inhibitor, partial curve, poor fit]"
11,Cc1c(CC(=O)NCc2cccnc2)c2c(n1CC(C)C)CC(C)(C)CC2=O,"inconclusive [inhibitor, partial curve, poor fit]"
12,O=C(NC1CCN(c2cc(-c3cccs3)[nH]n2)C1)c1cccc(Cl)c1 (stereo not given),"inconclusive [inhibitor, partial curve, poor fit]"
13,Cc1ccc(OC(C)c2nc(-c3cccnn3)no2)cc1C (stereo not given),"inconclusive [inhibitor, partial curve, poor fit]"
14,COc1ccc(-c2cc(N3CCCC(NC(=O)c4cc(F)ccc4Cl)C3)n[nH]2)cc1 (stereo not given),"inconclusive [inhibitor, partial curve, poor fit]"
15,O=C(CC1CCCCC1)NC1CCN(c2cnn(Cc3ccccc3)c(=O)c2)CC1,inactive
16,O=S(=O)(c1ccccc1)N1CC(c2nc(-c3ccncc3)no2)C1,inactive
17,COc1ccc(CCNC(=O)CN2C(=O)NC(c3ccc(C)cc3)C3=C2COC3=O)cc1OC (stereo not given),"inconclusive [inhibitor, full curve]"
18,CN1CCC(N2CC3(CCC2=O)CCN(C(=O)Cn2ccnc2)CC3)C1 (stereo not given),"inconclusive [inhibitor, single point]"
19,O=C1NCc2ccccc2CC12CCN(Cc1c[nH]c3ccccc13)C2 (stereo not given),inactive
20,CCNc1cc(N2CCC(CCC(=O)NCCc3ccccn3)CC2)ncn1,"inconclusive [inhibitor, full curve, poor fit]"
21,COc1ccc(CCNC(=O)CN2C(=O)NC(c3ccccc3Cl)C3=C2COC3=O)cc1OC (stereo not given),"inconclusive [inhibitor, single point]"
22,COc1cc(-c2onc(C)c2C(=O)NCCSC)cc(OC)c1OC,"inconclusive [inhibitor, full curve, poor fit]"

row,Structure (SMILES),Potency
1,O=C(Nc1ccc(N2CCOCC2)cc1)C1(CCO)CCN(c2ncccn2)C1 (stereo not given),"inconclusive [inhibitor, single point]"
2,CC1Oc2ccc(NC(=O)c3c(F)cccc3F)cc2CN(CCc2ccc(F)cc2)C1=O (stereo not given),"inconclusive [inhibitor, single point]"
3,CC(C)N1C(=O)C2(CCCCC2)C1C(=O)NC1CC1 (stereo not given),"inconclusive [inhibitor, partial curve, poor fit]"
4,O=C(c1ccc2[nH]ccc2c1)N1CCC(N2C(=O)C3(CCCCC3)C2c2ccncc2)CC1 (stereo not given),"inconclusive [inhibitor, single point]"
5,COC1CCN(C(=O)Cc2c[nH]c3ncc(-c4ccccc4)cc23)CC1,inactive
6,O=C(O)COCC(=O)N1CC[C@H](C(=O)Nc2cc(Cl)ccc2O)C1,"inconclusive [inhibitor, partial curve, poor fit]"
7,COCCN1C[C@H]2CN(Cc3ccccc3)CCN2C1=O,"inconclusive [inhibitor, single point]"
8,CC(=O)Nc1ccc(C2(C(=O)N(C)Cc3ccccc3)CCCCC2)cc1,inactive
9,O=C(Cn1ccn2nc3c(c2c1=O)CCCC3)NCc1ccc2c(c1)OCO2,"inconclusive [inhibitor, single point]"
10,CC(C)[N+](C)(C)CC(O)COc1cccc2ccccc12 (stereo not given),"inconclusive [inhibitor, single point]"
11,C=C1C(=O)OC2CC(C)=C(C(C)CCCO)C(O)C12 (stereo not given),"inconclusive [inhibitor, partial curve, poor fit]"
12,C#CCN(C)Cc1nc(C2(O)CCN(C(=O)C3CCCCC3)CC2)cs1,"inconclusive [inhibitor, partial curve, poor fit]"
13,O=C(Cc1cccc(F)c1)NCC(=O)N1CCCCCNC(=O)CC1c1ccccc1 (stereo not given),inactive
14,O=C1Nc2ccccc2CC12CN([S+](=O)([O-])c1cccc(C(F)(F)F)c1)C2,inactive
15,COc1ccc(C(=O)N2CCOC3(CCN(C(=O)CCN)CC3)C2)cc1,"inconclusive [inhibitor, single point]"
16,COc1ccc(-c2cc(N3CCC(NC(=O)c4cccnc4)C3)n[nH]2)cc1 (stereo not given),"inconclusive [inhibitor, partial curve]"
17,COc1ccccc1-c1cc(-c2cccc([S+](C)(=O)[O-])c2)c2onc(C)c2n1,"inconclusive [inhibitor, full curve, poor fit]"
18,Cc1ccc(C(=O)N2CCC(n3c(=O)[nH]c4ccccc43)CC2)cc1,inactive
19,CN(C)c1cc(N2CCCC(NC(=O)NCc3ccccc3)C2)ncn1 (stereo not given),"inconclusive [inhibitor, single point]"
20,CCN(C(=O)c1ccc2c(c1)N(S(C)(=O)=O)CC2)c1ccccc1C,"inconclusive [inhibitor, full curve, poor fit]"
21,COc1ccc(NC(=O)Cn2c(-c3ccc(F)cc3)nc(C)c(CCO)c2=O)cc1OC,"inconclusive [inhibitor, partial curve]"
22,COc1ccc(-c2ncc(CN3CCCC4(C3)CN(C)C(=O)O4)cn2)cc1 (stereo not given),"inconclusive [inhibitor, full curve, poor fit]"

row,Structure (SMILES),Potency
1,COc1ccc(N2CCN(C3CCCN(C/C=C/c4ccccc4OC)C3)CC2)cc1 (stereo not given),inactive
2,O=C(c1ccc2n[nH]nc2c1)N1CCC2(CC1)Nc1ccccc1NC2=O,"inconclusive [inhibitor, partial curve, poor fit]"
3,O=C(NC1CCCC1)c1csc(N2CCN(c3ccccc3F)CC2)n1,inactive
4,COCc1noc(-c2ccc(N(C)CC3CC(=O)N(C(C)(C)C)C3)nc2)n1 (stereo not given),inactive
5,NS(=O)(=O)c1ccc(CCNCC2(O)CNCCOC2)cc1 (stereo not given),"inconclusive [inhibitor, single point]"
6,COc1cc(-c2nc3c([nH]2)CCCNC3=O)ccc1O,"inconclusive [inhibitor, single point]"
7,COc1ccc(-c2nc(C3CC3)nc3c2CCN(Cc2cccc4ccccc24)CC3)cc1,inactive
8,COc1ccc(S(=O)(=O)N[C@H]2C[C@@H](c3nc(-c4ccc(C)cc4)no3)N(C)C2)cc1,"inconclusive [inhibitor, single point]"
9,CC(=O)OC1C(O)CC(O[C@@H]2O[C@H](CO)[C@@H](O)[C@H](O)[C@H]2O)C2CCC3C(=O)OC(c4ccoc4)CC3(C)C21 (stereo not given in full),inactive
10,COc1ccc(CCC(=O)Nc2ccc(-c3nnc4n3CCCC4)cc2)cc1,"inconclusive [inhibitor, single point]"
11,COc1ccc(CNC(=O)C2CC(=O)N(c3n[nH]c4ccccc34)C2)cc1OC (stereo not given),inactive
12,Cc1cc(=O)n(CC(=O)NCCCc2ccccc2)c(N2CCc3ccccc3C2)n1,"inconclusive [inhibitor, single point]"
13,CCOC(=O)N1CCC(N(C)CC2CCN(CCc3ccc(F)cc3)CC2)CC1,inactive
14,O=C(NCCC1=CCCCC1)c1noc(-c2ccc[nH]c2=O)n1,"inconclusive [inhibitor, single point]"
15,Cc1ccc(-c2cc(N3CCCN(C(=O)c4cccnc4)CC3)n[nH]2)cc1C,inactive
16,O=C(NCc1ccccn1)c1nc2cccnc2n(CCc2ccccc2)c1=O,"inconclusive [inhibitor, single point]"
17,COc1ccc(-c2cc(N3CCCN(C(=O)c4ccc(NC(C)=O)cc4)CC3)n[nH]2)cc1,"inconclusive [inhibitor, single point]"
18,O=C(c1ccccc1F)N1CCC2(C1)C(=NC1CCCC1)NC(=O)N2c1cccnc1 (stereo not given),inactive
19,C#CCNC(=O)C[C@@H]1c2nc(NC(=O)c3ccc(OC)cc3)sc2C[C@@H]2[C@](C)(CO)[C@H](O)CC[C@]21C,"inconclusive [inhibitor, single point]"
20,C=CCS(=O)(=O)N1CCC2(CCCN(CCCc3ccccc3)C2=O)C1 (stereo not given),"inconclusive [inhibitor, full curve, poor fit]"
21,CC(CN1c2ccccc2Sc2ccccc21)N(C)C (stereo not given),inactive and active: 10 µM
